Screen size: about 45,000 compounds; about 65 (0.1%) were called active. Calls follow the shape of the dose curve; as a rule, active = well fitted activation curve with a large enough effect; inconclusive = small, poorly fitted or top-dose-only effect; inactive = no such curve, though single readings can be large or run the other way. The list shows a part of the results.
Molecular target: Galactocerebrosidase (Homo sapiens) (UniProt P54803)
Experiment: A Novel Cell-Based Assay to Identify Small Molecules for B -Galactocerebrosidase; also: 0% is about no effect; nearly all actives have a fitted effect of over 65% in size
Conditions: 145M-Twi-hGALC-G270D cells, HMU-beta-Gal fluorescence, 48 h; series mostly up to 57.5 µM; activation: at the top concentration
Summary of the method: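 qHTS, 1536-well; 145M-Twi-hGALC-G270D cells (WT line also made) in DMEM/F12 + 10% FBS; compound incubation on live cells; HMU-β-gal 0.1 mM final, pH 5.2, NaTC; carbonate stop; fluorescence increase = enhanced residual activity.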

UniProt P54803, sequence (P54803 whole entry, looked up): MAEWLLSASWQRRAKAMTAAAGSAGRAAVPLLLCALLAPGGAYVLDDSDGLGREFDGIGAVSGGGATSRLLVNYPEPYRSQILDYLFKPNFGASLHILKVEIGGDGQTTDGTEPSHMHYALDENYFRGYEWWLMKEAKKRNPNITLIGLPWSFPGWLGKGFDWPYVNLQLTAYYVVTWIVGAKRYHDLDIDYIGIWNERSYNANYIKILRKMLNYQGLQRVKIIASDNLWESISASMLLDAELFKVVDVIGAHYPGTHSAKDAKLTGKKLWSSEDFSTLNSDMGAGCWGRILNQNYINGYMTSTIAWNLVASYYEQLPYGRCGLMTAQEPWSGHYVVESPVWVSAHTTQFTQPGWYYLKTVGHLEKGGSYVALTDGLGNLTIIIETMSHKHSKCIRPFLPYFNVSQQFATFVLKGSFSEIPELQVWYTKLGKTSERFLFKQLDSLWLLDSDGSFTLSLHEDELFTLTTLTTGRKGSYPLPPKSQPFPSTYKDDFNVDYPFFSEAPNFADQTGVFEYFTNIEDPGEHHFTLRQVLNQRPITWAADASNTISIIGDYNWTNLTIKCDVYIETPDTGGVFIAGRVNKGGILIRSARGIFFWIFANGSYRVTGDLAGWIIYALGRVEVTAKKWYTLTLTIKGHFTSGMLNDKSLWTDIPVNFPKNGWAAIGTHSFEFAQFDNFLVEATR

activation, inactive:
Cc1ccc(Cl)cc1N1CCN(C(=O)c2cc3ccc4cccnc4c3[nH]2)CC1 -2.34%
CC(C)c1ccc(C2=CC(c3cccc(Cl)c3)n3c(nc4ccccc43)N2)cc1 (centres undefined) -18.4%
CCC(CC)(CC(=O)Nc1cccc(/C=C/c2nc(C3CCC3)cs2)c1)C(=O)O -12.7%
COc1ccc(Cl)cc1C(=O)Nc1ccc2nc(Nc3cccc(Cl)c3)cc(C)c2c1 -6.88%
CCCc1ccc(S(=O)(=O)N2CCC(c3nnc(-c4cccc(C)c4)o3)CC2)cc1 3.73%
COc1cc(OC)c(NC(=O)c2c(N3CCCC3=O)c3cc(C)ccc3n2C)cc1Cl -10.1%
COc1ccc(OC)c(CNC(=O)c2ccc3nc(C(C)C)oc3c2)c1 1.62%
CC(C)Oc1ccc(CNC(=O)c2ccc3c(c2)nc2n3CCCCC2)cc1 -24.1%
CCOc1ccccc1NC(=O)Cn1ncc2c([nH]c3ccccc32)c1=O -8.35%
CCn1c(=O)c2cc(C(=O)NCCCN3CCN(c4ccc(F)cc4)CC3)sc2c2ccccc21 -25.7%
Cc1ccccc1OCC(=O)Nc1nnc(S(=O)(=O)N2CCCC2)s1 -5.71%
CCOc1ccc(N2CC(c3nc4ccccc4n3CCCCOc3ccc(OC)cc3)CC2=O)cc1 (centres undefined) -19.6%
Cc1cc(=O)n2nc(N3CCC(C(=O)Nc4c(C)cccc4C)CC3)sc2n1 -10%
COc1ccc(C2=C(C)C(=O)N(Cc3ccc(C(=O)NC(C)c4ccccc4)cc3)S2(=O)=O)cc1 (centres undefined) -13.1%
CCOC(=O)[C@H](CCc1ccccc1)N[C@@H](C)C(=O)N1[C@H](C(=O)O)C[C@@H]2CCC[C@@H]21 -16.4%
Cc1cccc(OC(C)C(=O)Nc2nonc2-c2ccc(Br)cc2)c1C (centres undefined) -12.8%
O=C(NC1CCCCCC1)C1c2ccccc2C(=O)N1Cc1ccc(F)cc1 (centres undefined) -16.6%
COc1ccc(CNC(=O)CN2C(=O)CSc3ccc(S(=O)(=O)N(C)C)cc32)cc1 -11.4%
Cc1cccc(N2C(=O)CSC23C(=O)N(CC(=O)Nc2cccc(Cl)c2)c2ccccc23)c1 (centres undefined) -18.4%
CC1CCN(S(=O)(=O)c2cc3c4c(c2)C(C)C(=O)N4CCC3)CC1 (centres undefined) -15.3%
CCN(CC)c1ccc(NC(=O)CN2CCN(c3ccccc3OC)CC2)cc1 -16.7%
Oc1c(C(c2ccccc2)N2CCOCC2)sc2nc(-c3ccco3)nn12 (centres undefined) -12.8%
CCc1cccc(NC(=O)Cn2c(=O)n(CCC(=O)NCc3ccccc3Cl)c(=O)c3sccc32)c1 0.55%
CCOC(=O)c1cc(C)n(CC2CCC(C(=O)Nc3cccc(Cl)c3)CC2)c1C (centres undefined) -2.51%
Cc1cc(C)cc(NC(=O)c2sc3nc4n(c(=O)c3c2C)N=C(c2ccccc2)CS4)c1 -17.5%
Nc1c(C(=O)Nc2cccc(F)c2)nnn1-c1cccc(C(F)(F)F)c1 -13.3%
COc1ccccc1C(=O)Nc1cccc(C(=O)OCc2cc(=O)n3cc(C)sc3n2)c1 -7.34%
CCOC(=O)c1c(C)[nH]c(C)c1S(=O)(=O)N1CCC(C(=O)Nc2cc(Cl)ccc2OC)CC1 1.16%
Cc1cc(C)c(NC(=O)c2sc3nc(C)cc(C)c3c2NC(=O)c2ccccc2)c(C)c1 0.888%
CC1=C(c2ccc(C)c(C)c2)S(=O)(=O)NC1=NCc1ccccc1Cl 4.86%
CCOc1ccc(CCNC(=O)c2cn(C)c3ccc(S(=O)(=O)N4CCCCC4)cc3c2=O)cc1OCC -13.9%
CCOC(=O)c1sc2ncn(CC(=O)Nc3ccc(OCC)cc3)c(=O)c2c1C -13%
COc1ccc(-c2nc(C)c(CCNS(=O)(=O)c3cc(Cl)ccc3Cl)s2)cc1 -30.5%
Cc1c(C(=O)Nc2cccc(C(F)(F)F)c2)oc2ccc3c(c12)C(=O)CC(C)(C)O3 -10.4%
CCC(=O)N1c2ccccc2CC1C(=O)NCCc1ccc(OC)c(OC)c1 (centres undefined) -7.07%
CCc1nn2c(=O)cc(COC(=O)COc3ccc(OC)cc3)nc2s1 -22.1%
O=C(CNC(=O)c1ccc(F)cc1)OCc1cc(=O)n2nc(C3CC3)sc2n1 1.82%
CCc1nc2nc(C)c(NS(=O)(=O)c3ccc(C(C)(C)C)cc3)c(=O)n2[nH]1 -6.62%
O=C(CCn1cnc2ccccc2c1=O)NCc1ccccc1Cl -13.4%
CCOC(=O)c1cc2c(=O)n3ccccc3nc2n(CCOC)c1=NC(=O)c1c(-c2ccccc2Cl)noc1C 0.707%
Cn1c(=O)oc2cc(S(=O)(=O)NCCC(=O)Nc3ccc(F)cc3F)ccc21 -7.71%
COc1cccc(-n2c(=O)c3sc4ccccc4c3n(CC(=O)NC3CCCCC3)c2=O)c1 -5.41%
Cc1c(NC(=O)c2ccc(-c3cccc([N+](=O)[O-])c3)o2)cccc1-c1nc2cc(Cl)ccc2o1 3.86%
O=C(NCCC1=CCCCC1)c1ccc2c(c1)N(Cc1cccc(Cl)c1)C(=O)c1ccccc1S2=O (centres undefined) -5.08%
CC(C)CCNC(=O)Cc1ccc(NC(=O)N2CCCCc3ccccc32)cc1 -7.97%
CCCCC(=O)NC1CC(=O)N(c2ccc3c(c2)OCCO3)C1 (centres undefined) -2.71%
Cc1ccc(S(=O)(=O)N(CC(=O)Nc2ccc3c(c2)OCO3)c2cc(Cl)cc(Cl)c2)cc1 -18.5%
Cc1cc(OCC(=O)Nc2ncn[nH]2)ccc1Cl -9%
CCN(CC)S(=O)(=O)c1ccc(OC)c(-n2cnnn2)c1 3.24%
CCc1ccc(CNC(=O)c2nn(-c3ccc(C)cc3)c(=O)c3c2c2ccccc2n3C)cc1 -25.9%
Cc1nc2c(-c3ccc(F)cc3)c(C)nn2c(C)c1CCC(=O)N1CCN(c2ccccc2)CC1 -31.8%
CCN(C(=O)Cn1nnc2sc3c(c2c1=O)CCC(C(C)(C)C)C3)c1cccc(C)c1 (centres undefined) -10.2%
CCCCn1c(SCC(=O)c2ccccc2)nc2c(sc3ccccc32)c1=O -6.26%
CCC1CN(S(=O)(=O)c2cc(-c3cc(C)no3)ccc2C)c2cc(C)ccc2O1 (centres undefined) -37.2%
Cc1ccc(-n2nc3ccc(NC(=O)COc4ccccc4C)cc3n2)cc1 -12.7%
COc1cc(CCC(=O)NCc2ccc3c(c2)CCN3C(=O)c2ccccc2)cc(OC)c1OC -13.7%
Cc1ccc(C)c(N2CCN(S(=O)(=O)c3cc(-c4cc(C)no4)ccc3C)CC2)c1 -30%
COc1ccc(-c2nnc(SCC(=O)NCCc3ccc(OC)c(OC)c3)nc2-c2ccc(OC)cc2)cc1 -11.5%
Cc1nc2cccnc2n1-c1cccc(C(=O)N2CCN(c3cccc(Cl)c3)CC2)c1 -6.98%
Cc1ccc(-n2nc(CO)c(C(=O)NCCCCc3ccccc3)n2)cc1C 0.688%
CSc1ccc(CCNC(=O)c2cc(C)nc3c2c(C)nn3-c2ccccc2)cc1 -9.83%
CC1=Nc2cc(C(=O)NCc3ccccc3Cl)ccc2Sc2c(C)ccc(C)c21 -0.554%
COc1ccc(-c2ccc3c(N)c(C(=O)Nc4ccc(C(F)(F)F)cc4)sc3n2)cc1OC -2.14%
O=C(CN1C(=O)C(c2ccc(F)cc2)=NC12CCCCCC2)Nc1ccccc1Cl -14.7%
CCCn1c(=O)n(-c2ccccc2Cl)c(=O)c2sc3ccccc3c21 -6.81%
Cc1cc(C)c(NC(=O)Cn2nc(-c3ccncc3)ccc2=O)c(C)c1 -19%
Cc1ccc(-c2noc(-c3ccccc3NC(=O)c3ccccc3)n2)cc1 -8.51%
CCC(=O)N1CCc2cc(Br)cc(S(=O)(=O)CCC(=O)NCc3ccccc3OC)c21 -26.8%
Cc1ccc(NC(=O)Cc2ccc(-n3c(C)nc4cccnc43)cc2)c(Cl)c1 -11.7%
CCOc1ccc(NC(=O)Cn2ncc3c2-c2cc(C)ccc2OC3)cc1 -11.9%
CCOC(=O)c1[nH]c(C)c(CCC(=O)N2CCN(c3cccc(OC)c3)CC2)c1C -13.4%
CCCCN(CC)C(=O)CSc1nc2n[nH]c(C)c2c(=N)n1-c1cccc(Cl)c1 -0.861%
COc1ccccc1C(=O)NCCn1cc(SCC(=O)Nc2ccccc2F)c2ccccc21 4.38%
COc1ccc(CCNC(=O)C(=O)Nc2ccccc2F)cc1 -5.94%
Cc1ccc(CNC(=O)C(=O)Nc2c3c(nn2-c2ccccc2)CSC3)cc1 -2.5%
Cc1ccc(C)c(N2CCN(S(=O)(=O)c3ccc4[nH]c5c(c4c3)CCCCC5)CC2)c1 -40.5%
CC(C)Cn1cc(NC(=O)N2CCN(c3cccc(Cl)c3)CC2)c2ccccc2c1=O -22.2%
O=C(NCc1ccccc1)c1ccc(CNS(=O)(=O)c2ccc(Br)cc2)cc1 -14.6%
COc1ccccc1CNS(=O)(=O)c1ccc2c(c1)CC(C)N2C(C)=O (centres undefined) -4.62%
CC1CCN(S(=O)(=O)c2ccc3c(c2)N(CC(=O)NC(C)c2ccccc2)C(=O)CS3)CC1 (centres undefined) -0.507%
O=C(O)c1cc(=O)c2ccccc2o1 -14.6%
Cc1cc(C)c(NC(=O)c2cc(S(=O)(=O)N3CCC4(CC3)OCCO4)ccc2F)c(C)c1 -7.84%
Cc1ccc(-c2nc(NC(=O)CSc3cc(C)c4ccccc4n3)ns2)cc1 -10.8%
COc1cc(Cl)c(S(=O)(=O)NCCc2c(C)[nH]c3c(C)cccc23)cc1Cl -7.74%
CCc1ccc(NC(=O)N2CCOc3ccc(Cl)cc32)cc1 -7.8%
O=C(Nc1cc(-c2nc3cc(Cl)ccc3o2)ccc1Cl)c1ccco1 -11.4%
CC1CCCN(C(=O)CSc2c3c(nc4cc(Cl)ccc24)CCCC3)C1 (centres undefined) -1.13%
COc1cccc(C2C(C(=O)Nc3ccc(C)cc3C)=C(C)Nc3c(C(=O)Nc4ccccc4)cnn32)c1 (centres undefined) -4.64%
O=C(Nc1nnc(S(=O)(=O)N2CCCc3ccccc32)s1)c1cccc(Cl)c1 -2.85%
CCc1ccc(NC(=O)CSc2nc(=O)n(Cc3ccccn3)c3c2CCC3)cc1 1.28%
CCN(CCCNC(=O)Cn1ncc2c3ccccc3n(C)c2c1=O)Cc1ccccc1 1.92%
CCCSc1ncc(Cl)c(C(=O)Nc2ccc(S(=O)(=O)N(C)c3ccccc3)cc2)n1 -12.4%
COC(=O)c1ccc(C2c3c(-c4ccccc4O)n[nH]c3C(=O)N2Cc2cccnc2)cc1 (centres undefined) -31.4%
COc1ccc(S(=O)(=O)N2CCC(C(=O)Nc3ccc(Oc4ccccc4)cc3)CC2)cc1 -24.9%

From PubChem BioAssay AID1159614 (National Center for Advancing Translational Sciences (NCATS), 2016)
